{"source": "PubChem BioAssay (NCI)", "note": "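How tested: cells in 96-well plates exposed to compound for 48 hours at five concentrations. GI50 = concentration required for 50% inhibition of growth. TGI: concentration producing complete growth inhibition.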"}
{"test_system": "NCI-H322M lung", "test": "NCI anticancer screen, dose series, 48 h", "units": {"TGI": "µM", "GI50": "µM"}}
{"smiles": "CC1=Nc2c(ccc3c2C(=O)c2ccccc2C3=O)NC(c2cccc3c2CCC3)C1", "note": "(stereo not given)", "TGI": "> 83.6"}
{"smiles": "Cn1c(C(=O)c2ccncc2)cc2ccccc21", "GI50": "> 100", "TGI": "> 100"}
{"smiles": "COC(=O)C1C(O)CCC2CN3CCc4c([nH]c5ccccc45)C3CC21", "note": "(stereo not given)", "TGI": "> 100"}
{"smiles": "O=S(=O)(NC1=NCCN1C(=S)SN1CCn2c1nsc2=S)c1cccc2ccccc12", "GI50": 34.1, "TGI": "> 100"}
{"smiles": "CCNC(=O)COc1ccc(Br)cc1Br", "TGI": "> 100"}
{"smiles": "O=C1c2ccccc2-[n+]2ccc3c([nH]c4ccccc43)c21", "TGI": 1.82}
{"smiles": "COc1ccc(/C=C/C(=O)/C=C/c2cc3ccccc3[nH]c2=O)cc1", "GI50": 13.9, "TGI": 33.2}
{"smiles": "CCC[CH2][Sn]([Cl])([Cl])[CH2]CCC", "GI50": 1.69, "TGI": 3.22}
{"smiles": "CCOC(=O)C1=C(O)C2C3CC4C2C(O)=C(C(=O)OCC)C2C1C3C42", "note": "(stereo not given)", "TGI": "> 100"}
{"smiles": "CC(=O)N/N=C1\\CC(C)(C)C2CCC1C2", "note": "(stereo not given)", "TGI": "> 100"}
{"smiles": "O=S(=O)(O)c1cc(N=Nc2c(O)ccc3ccccc23)ccc1/C=C/c1ccc(N=Nc2c(O)ccc3ccccc23)cc1S(=O)(=O)O", "TGI": "> 100"}
{"smiles": "NC(N)=NC(N)=Nc1ccc(S(=O)(=O)O)cc1", "TGI": "> 100"}
{"smiles": "O=S(=O)(NCCNc1nccc(-c2c(-c3ccc(F)c(O)c3)nc3sccn23)n1)c1ccc(F)cc1", "GI50": 3.36, "TGI": 30.4}
{"smiles": "COc1ccc(NC(=O)CC2SC(=Nc3ccccc3C)NC2=O)c([N+](=O)[O-])c1", "note": "(stereo not given)", "TGI": "> 100"}
{"smiles": "COc1cc(C2SCCCCCCCCCCSC(c3ccc(O)c(OC)c3)SCCCCCCCCCCS2)ccc1O", "note": "(stereo not given)", "TGI": "> 100"}
{"smiles": "CCc1ccc(NC(=O)NC(=O)c2ccccc2[N+](=O)[O-])cc1Oc1ncc(Cl)cn1", "TGI": "> 100"}
{"smiles": "Cc1nc(C)c(N2CCN(S(=O)(=O)N(Cc3ccccc3)Cc3ccccc3)CC2)c(=O)[nH]1", "TGI": "> 100"}
{"smiles": "COc1ccc2c(=O)cc(-c3ccccc3)[nH]c2c1", "GI50": 0.463, "TGI": "> 100"}
{"smiles": "[C](#Cc1ccccc1)[Hg][C]#Cc1ccccc1", "GI50": "> 100", "TGI": "> 100"}
{"smiles": "CCOC(=O)C(Cc1c[nH]c2c(N(CCO)CCO)cccc12)(NC(C)=O)C(=O)OCC", "GI50": "> 1000", "TGI": "> 1000"}
{"smiles": "COC(=O)/C=C(C)/C=C/C1OC(C)OCC1O", "note": "(stereo not given)", "TGI": "> 100"}
{"smiles": "CC(=O)Oc1ccc(C23c4ccccc4C2(OC(C)=O)c2cc(OC(C)=O)ccc23)cc1", "note": "(stereo not given)", "GI50": 13.5, "TGI": 42}
{"smiles": "O=S(=O)(Nc1nc2ccccc2nc1Nc1ccc2ccccc2c1)c1ccccc1", "TGI": "> 100"}
{"smiles": "[N-]=[N+]=NC(c1cn(C2CC(O)C(CO)O2)c(=O)[nH]c1=O)C(Br)Br", "note": "(stereo not given)", "TGI": "> 100"}
{"smiles": "COc1ccc2cc(/C=C/C(=O)c3ccc(Cl)cc3Cl)ccc2c1", "GI50": 90.8, "TGI": "> 100"}
{"smiles": "O=C1CC2C(=O)c3ccccc3CC2c2ccccc21", "note": "(stereo not given)", "TGI": "> 100"}
{"smiles": "CCOC(=O)c1nnsc1N/N=C\\c1ccc([N+](=O)[O-])cc1", "TGI": "> 100"}
{"smiles": "CC(C)c1c(-c2ccccc2)nc2c(C#N)c[nH]n2c1=O", "GI50": 33.8, "TGI": "> 100"}
{"smiles": "C=C1C(=O)OC2C/C(C)=C/CC/C(C)=C/CCC3(COC(C)=O)OC3CC12", "note": "(stereo not given)", "TGI": 30}
{"smiles": "O=C(NCCN1CCOCC1)c1cn2c(ccc3sc4ccccc4c(=O)c32)n1", "TGI": "> 100"}
{"smiles": "CN(C(=O)Cc1ccccc1)n1cnn(CC(=O)OC(C)(C)C)c1=S", "TGI": "> 10"}
{"smiles": "C=CCn1c(C)nc2ccc(Nc3nc(Nc4ccc(F)cc4)nc4ccccc34)cc21", "GI50": 6.16, "TGI": 21.5}
{"smiles": "Cc1cc2/c(=C\\c3ccc(N(C)C)cc3)c3ccccc3n2[n+]1C", "TGI": 5.2}
{"smiles": "C=CCC1CC(n2cc(C)c(=O)[nH]c2=O)OC1CO[Si](C)(C)C(C)(C)C", "note": "(stereo not given)", "TGI": 28.6}
{"smiles": "CN1C/C(=C\\c2cccs2)C(O)/C(=C/c2cccs2)C1", "note": "(stereo not given)", "TGI": "> 100"}
{"smiles": "COc1cc(F)c(F)c(Nc2ccc(I)cc2F)c1NS(=O)(=O)C1(C[C@H](O)CO)CC1", "GI50": 0.55, "TGI": "> 10"}
{"smiles": "O=C(/C=C/C12c3ccccc3C(c3ccccc31)C1C(=O)NC(=O)C12)c1ccc(Cl)cc1Cl", "note": "(stereo not given)", "GI50": 1.67, "TGI": 3.05}
{"smiles": "Cc1ccc(/C=N/n2c(-c3ccc(C)cc3)n[nH]c2=O)cc1", "TGI": "> 100"}
{"smiles": "COc1ccc(NC(=O)/C(=C/c2ccccc2)C(C)=O)cc1", "TGI": 24.3}
{"smiles": "CCCCCCCCCCCCCCCCCC1=NC(C)(C)CN1CC(C)O", "note": "(stereo not given)", "GI50": 13, "TGI": 26.1}
{"smiles": "CC(=O)c1ccc2c(c1)C1C=CCC1[C@H](c1cc3c(cc1Br)OCO3)N2", "note": "(stereo not given in full)", "GI50": 4.23, "TGI": "> 85.8"}
{"smiles": "c1cc2c(s1)-c1sccc1C21OCCO1", "TGI": "> 100"}
{"smiles": "N#CN/C(N)=N/C/N=C(\\N)NC#N", "TGI": "> 100"}
{"smiles": "O=c1cc(CO)oc2c3c(cc(O)c12)OCC(COC1OC(CO)C(O)C(O)C1O)=CC3", "note": "(stereo not given)", "TGI": "> 100"}
{"smiles": "COc1cccc(/C(C#N)=C/c2nc3c(N4CCOCC4)nc(Cl)nc3n2C)c1", "GI50": 1.71, "TGI": 3.9}
{"smiles": "COc1cc(OC)c(C(=O)/C=C/c2cc3c(cc2OCc2ccccc2)OC(C)(C)CC3)cc1CC=C(C)C", "GI50": 5.73, "TGI": 21.9}
{"smiles": "Brc1ccc(C[P+]2(c3ccccc3)CCCCC2)cc1", "TGI": "> 100"}
